Source: PubChem BioAssay AID1508623 (National Center for Advancing Translational Sciences (NCATS), 2021)
Screen size: about 48,000 compounds; about 450 (0.94%) were called active. Not shown: some 19% with an inconclusive outcome. The call rests on the fitted dose curve; in most records, active means well fitted inhibition curve with a large enough effect; inconclusive means small, poorly fitted or top-dose-only effect; inactive means no such curve, though single readings can be large or run the other way. This is one part of the list.

experiment: Primary qHTS for Identification of Small Molecule Inhibitors of Huntingtin Promoter Activity; details: HEK293 HTT promoter firefly luciferase reporter (activity 0% = vehicle and -100% = no light), 24 h; series mostly up to 57.5 µM; activity change, negative = inhibition: at the top concentration; further: nearly all actives have a fitted effect of over 50% in size
Summary of the method: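 Quantitative HTS used concentration series of up to 57.5 uM final on HEK293 luciferase reporter cells, 24 h at 37 degrees C. Readout was Dual-Glo firefly luminescence.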

Activity change, negative = inhibition, inactive:
CCSc1ncc(Cl)c(C(=O)Nc2cccc(Cl)c2)n1 -33.4%
CCOC(=O)C1(C)C=C(Nc2cccc(C(=O)O)c2)C(=O)N1c1ccccc1 (stereo unspecified) 19.9%
Cc1ccc2c(=O)cc(C(=O)Nc3c(C)n(C)n(-c4ccccc4)c3=O)oc2c1 -9.96% [at 11.5 µM]
COc1cc(NC(=O)CSc2nc3nc(C)c(Cc4ccccc4Cl)c(C)n3n2)cc(OC)c1 -18.9%
CCCOc1ccc(CNC(=O)C(NS(=O)(=O)c2cccs2)C(C)C)cc1 (stereo unspecified) -14.9%
COc1cc(Cl)c(C)cc1NC(=O)c1cnc(N2CCCCC2)c2ccccc12 -12.9%
COc1cc2nc(SCc3ccc(C)cc3)n3nc(CCn4nc(C)cc4C)nc3c2cc1OC -5.64%
COC(=O)C(CCSC)Nc1ncnc2onc(-c3ccc(F)cc3)c12 (stereo unspecified) -8.89%
CC(C)Cn1c(-c2cccc(Br)c2)nc2ccccc21 -28.7%
Cc1cc(C)cc(NC(=O)C(Cc2ccccc2)NS(=O)(=O)c2ccc3c(c2)CCC(=O)N3)c1 (stereo unspecified) -15%
CCOc1ccccc1NC(=O)C(=O)Nc1ccc2nc3n(c(=O)c2c1)CCCCC3 -24%
Cc1cc(C)cc(NC(=O)Cc2noc3ccccc23)c1 37%
O=C(c1ccccc1)N1c2nc(-c3ccco3)nn2C2(CCCCC2)[C@@H]2CCCC[C@@H]21 -14.1%
Cc1ccccc1OCc1ccc(-c2nc(C#N)c(N3CCN(c4cccc(Cl)c4)CC3)o2)o1 -7.72%
Cc1cc(C)c(NC(=O)C2CCCN(S(=O)(=O)c3c(C)noc3C)C2)c(C)c1 (stereo unspecified) -17.6%
CCCCCCOc1ccc(C2C(=O)N(C3CCCCC3)CC(=O)N2C2CCCCC2)cc1 (stereo unspecified) -11.1%
O=C(c1ccc2c(c1)N(Cc1ccc(F)cc1)C(=O)c1ccccc1S2(=O)=O)N1CCCCC1 -9.46%
Cc1ccc(-c2nn3c(C)nnc3c3ccccc23)cc1S(=O)(=O)NCC(C)O (stereo unspecified) 29.1%
NC(=O)c1cc(S(=O)(=O)N2CCN(c3cccc(C(F)(F)F)c3)CC2)cs1 -4.8%
COc1cc(NC(=O)CSc2c3c(nc4ccccc24)CCC3)cc(OC)c1OC -25.6%
O=C(CSc1nc2ccccc2nc1Cc1ccc(Cl)cc1)N1CCN(c2ccccc2)CC1 -1.59%
Cc1ccc(-n2ncc(C(=O)NCc3ccco3)c2C2CCN(C(=O)OC(C)(C)C)CC2)cc1C -27.9%
Cc1c(C(=O)Nc2cc(F)ccc2F)sc2nc(-c3ccc(F)cc3)cn12 -13.2%
Cc1cccc(C)c1NC(=O)Cn1nnc(S(=O)(=O)c2ccccc2)c1N -8.54%
Cc1ccccc1-c1noc(-c2ccccc2OCC(=O)Nc2cccc([N+](=O)[O-])c2)n1 -10.8%
COc1ccc2c3c1OC1C[C@@H](O)C=C[C@@]31CCN(C)C2 (stereo partly specified) -0.836%
